# Data from article PMC6280653.
# Chains of the proteins cited; added tags and fusions are not shown. Lines headed by an entry give the natural chain unless they say otherwise; changes in a name come on top.
# UniProt Q9UL45: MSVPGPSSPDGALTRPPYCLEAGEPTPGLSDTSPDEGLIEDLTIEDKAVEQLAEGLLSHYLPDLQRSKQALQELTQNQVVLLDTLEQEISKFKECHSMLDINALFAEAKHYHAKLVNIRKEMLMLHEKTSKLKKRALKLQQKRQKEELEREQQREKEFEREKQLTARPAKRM
# UniProt Q969F9: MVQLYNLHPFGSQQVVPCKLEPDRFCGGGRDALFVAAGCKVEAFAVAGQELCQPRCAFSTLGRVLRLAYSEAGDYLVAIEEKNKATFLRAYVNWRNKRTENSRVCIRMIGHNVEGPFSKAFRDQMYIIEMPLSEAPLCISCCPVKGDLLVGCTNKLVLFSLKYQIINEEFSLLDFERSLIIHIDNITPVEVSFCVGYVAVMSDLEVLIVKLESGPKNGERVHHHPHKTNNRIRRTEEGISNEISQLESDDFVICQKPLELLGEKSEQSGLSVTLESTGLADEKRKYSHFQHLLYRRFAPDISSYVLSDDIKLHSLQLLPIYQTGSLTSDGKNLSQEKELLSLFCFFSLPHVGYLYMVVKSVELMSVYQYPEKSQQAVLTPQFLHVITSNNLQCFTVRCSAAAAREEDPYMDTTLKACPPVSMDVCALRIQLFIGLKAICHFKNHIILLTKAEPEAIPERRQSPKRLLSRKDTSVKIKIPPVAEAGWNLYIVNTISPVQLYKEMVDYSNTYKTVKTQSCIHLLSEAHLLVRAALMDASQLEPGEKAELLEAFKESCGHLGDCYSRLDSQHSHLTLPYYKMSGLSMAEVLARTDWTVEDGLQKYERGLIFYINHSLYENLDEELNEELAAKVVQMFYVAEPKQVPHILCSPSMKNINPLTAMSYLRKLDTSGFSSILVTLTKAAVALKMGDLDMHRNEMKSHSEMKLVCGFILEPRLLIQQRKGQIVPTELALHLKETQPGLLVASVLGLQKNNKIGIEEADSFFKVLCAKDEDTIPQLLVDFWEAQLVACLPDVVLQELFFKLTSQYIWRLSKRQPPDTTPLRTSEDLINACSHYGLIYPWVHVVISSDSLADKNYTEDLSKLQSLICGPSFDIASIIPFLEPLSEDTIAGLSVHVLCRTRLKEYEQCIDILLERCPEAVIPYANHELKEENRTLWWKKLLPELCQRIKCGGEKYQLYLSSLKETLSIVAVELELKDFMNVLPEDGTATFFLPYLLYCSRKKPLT
# UniProt Q91VB4: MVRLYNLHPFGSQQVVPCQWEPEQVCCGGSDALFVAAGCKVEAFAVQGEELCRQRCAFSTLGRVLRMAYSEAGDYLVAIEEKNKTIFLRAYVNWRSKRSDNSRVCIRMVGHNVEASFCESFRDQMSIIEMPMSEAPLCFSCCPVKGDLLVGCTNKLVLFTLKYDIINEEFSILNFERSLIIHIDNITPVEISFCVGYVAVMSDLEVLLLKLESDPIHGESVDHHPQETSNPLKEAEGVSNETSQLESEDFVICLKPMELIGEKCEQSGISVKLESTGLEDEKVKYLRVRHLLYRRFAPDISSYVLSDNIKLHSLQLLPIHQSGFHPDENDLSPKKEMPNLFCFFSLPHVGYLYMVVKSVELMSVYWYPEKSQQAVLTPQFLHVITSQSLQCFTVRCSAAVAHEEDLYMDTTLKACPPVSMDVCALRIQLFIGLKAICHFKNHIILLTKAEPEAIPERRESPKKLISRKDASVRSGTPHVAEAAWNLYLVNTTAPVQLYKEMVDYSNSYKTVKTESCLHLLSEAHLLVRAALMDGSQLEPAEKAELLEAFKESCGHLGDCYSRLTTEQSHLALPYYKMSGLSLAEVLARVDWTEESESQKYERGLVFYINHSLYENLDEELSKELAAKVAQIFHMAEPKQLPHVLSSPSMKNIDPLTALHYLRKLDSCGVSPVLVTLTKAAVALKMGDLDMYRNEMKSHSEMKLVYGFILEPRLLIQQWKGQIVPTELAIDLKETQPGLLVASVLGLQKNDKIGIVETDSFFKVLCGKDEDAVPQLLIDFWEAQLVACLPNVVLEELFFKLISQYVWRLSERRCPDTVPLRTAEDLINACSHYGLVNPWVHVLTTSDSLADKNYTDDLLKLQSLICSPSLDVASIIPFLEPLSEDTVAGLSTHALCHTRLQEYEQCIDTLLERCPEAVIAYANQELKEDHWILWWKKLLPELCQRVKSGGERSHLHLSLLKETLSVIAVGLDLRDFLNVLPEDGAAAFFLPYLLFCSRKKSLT
# UniProt P07355: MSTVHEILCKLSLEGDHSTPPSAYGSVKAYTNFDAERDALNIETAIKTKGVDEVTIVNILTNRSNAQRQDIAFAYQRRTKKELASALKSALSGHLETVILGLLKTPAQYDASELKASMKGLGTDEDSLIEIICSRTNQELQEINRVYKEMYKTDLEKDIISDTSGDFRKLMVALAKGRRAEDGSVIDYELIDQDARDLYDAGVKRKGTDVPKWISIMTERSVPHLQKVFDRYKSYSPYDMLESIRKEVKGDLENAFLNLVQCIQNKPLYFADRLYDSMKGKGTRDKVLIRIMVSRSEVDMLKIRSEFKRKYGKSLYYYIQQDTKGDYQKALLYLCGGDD
# These are yes or no findings as the source states them, for the method shown. In cells and extracts the contact can be indirect. Some results given as binding are weak or reduced against the parent protein; the word gives no strength. Tags and fused reporters may be left off the sequences shown.
# T1: 6xHis-Rab22A^WT (mouse) (UniProt P35285)
# T1 sequence: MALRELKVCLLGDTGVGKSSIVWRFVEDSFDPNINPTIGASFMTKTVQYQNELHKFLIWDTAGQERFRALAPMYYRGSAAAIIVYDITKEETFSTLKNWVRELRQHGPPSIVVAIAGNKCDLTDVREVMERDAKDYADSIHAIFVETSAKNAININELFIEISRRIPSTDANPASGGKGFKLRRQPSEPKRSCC
# T2: 6xHis-Rab22A^Q64L (mouse) (UniProt P35285)
# T2 sequence: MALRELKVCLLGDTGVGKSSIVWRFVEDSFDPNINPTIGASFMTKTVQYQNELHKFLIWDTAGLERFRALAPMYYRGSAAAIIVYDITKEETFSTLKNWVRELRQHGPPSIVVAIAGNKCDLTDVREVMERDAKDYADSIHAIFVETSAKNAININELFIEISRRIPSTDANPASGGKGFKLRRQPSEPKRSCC
# T3: His-K13^motor (human) (UniProt Q9H1H9)
# T3 sequence: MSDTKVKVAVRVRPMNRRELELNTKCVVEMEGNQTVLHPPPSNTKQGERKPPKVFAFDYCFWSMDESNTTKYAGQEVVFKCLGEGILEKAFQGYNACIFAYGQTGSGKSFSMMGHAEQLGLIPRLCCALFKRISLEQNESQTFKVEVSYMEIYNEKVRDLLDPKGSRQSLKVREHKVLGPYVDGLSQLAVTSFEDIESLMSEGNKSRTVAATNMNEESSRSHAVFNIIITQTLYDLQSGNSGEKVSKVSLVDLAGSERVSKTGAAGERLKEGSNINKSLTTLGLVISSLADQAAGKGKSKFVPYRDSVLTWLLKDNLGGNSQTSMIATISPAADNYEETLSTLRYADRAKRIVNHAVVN
# What was measured:
# 6xHis-Rab22A^WT (mouse) [1] = target: T1, 6xHis-Rab22A^WT (mouse); assay: pull-down; His-Rab22A^WT on Ni-NTA beads incubated with HeLa cell lysate in RIPA buffer, 6-8 h, 4°C; immunoblot; only the target purified
# 6xHis-Rab22A^WT (mouse) [2] = target: T1, 6xHis-Rab22A^WT (mouse); assay: pull-down; His-Rab22A^WT on Ni-NTA beads incubated with melanocyte lysate in RIPA buffer, 6-8 h, 4°C; immunoblot; the beads of Fig 5E were preloaded with nucleotide, here GTPγS (1 mM); only the target purified
# 6xHis-Rab22A^WT (mouse) [3] = target: T1, 6xHis-Rab22A^WT (mouse); assay: pull-down; His-Rab22A^WT on Ni-NTA beads preloaded with GDP (1 mM), incubated with melanocyte lysate in RIPA buffer, 6-8 h, 4°C; immunoblot; only the target purified
# [4] = target: T2, 6xHis-Rab22A^Q64L (mouse); assay: pull-down; His-Rab22A^Q64L on Ni-NTA beads incubated with melanocyte lysates in RIPA buffer, 6-8 h, 4°C; immunoblot; no nucleotide loading told; only the target purified
# His-K13^motor (human) = target: T3, His-K13^motor (human); assay: pull-down; His-KIF13A domains (motor, stalk-1, stalk-2, tail) on Ni-NTA beads incubated with HeLa cell lysate in RIPA buffer, 6-8 h, 4°C; immunoblot; only the target purified
binding (6xHis-Rab22A^WT (mouse) [1]),binding (6xHis-Rab22A^WT (mouse) [2]),Molecule,other results
binds,,BLOC-1 (biogenesis of lysosome-related organelles complex-1) (from UniProt Q9UL45 1-172; Q8TDH9 1-187; Q96EV8 1-351; Q9NUP1 1-217; O95295 1-136; P78537 1-153; Q6QNY1 1-142; Q6QNY0 1-202),
binds,,BLOC-2 (biogenesis of lysosome-related organelles complex-2) (from UniProt Q969F9 1-1004; Q9UPZ3 1-1129; Q86YV9 1-775),
,no binding,TYRP1 (tyrosinase-related protein-1) (from UniProt P07147 25-537),
binds,,KIF13A (from UniProt Q9H1H9 1-1805),
,binds,"BLOC-2 (biogenesis of lysosome-related organelles complex-2), of melanocytes (from UniProt Q91VB4 1-1002; P59438 1-1126; Q8BLY7 1-805)",binding (6xHis-Rab22A^WT (mouse) [3]): no binding (condition: His-Rab22A loaded with GDP); binding [4]: binds
,,annexin A2 (from UniProt P07355 1-339),binding (His-K13^motor (human)): binds
,no binding,"Rab38 (protein, UniProt Q8QZZ8 1-211) MQTPHKEHLYKLLVIGDLGVGKTSIIKRYVHQNFSSHYRATIGVDFALKVLHWDPETVVRLQLWDIAGQERFGNMTRVYYREAMGAFIVFDVTRPATFEAVAKWKNDLDSKLTLPNGKPVSVVLLANKCDQGKDVLMNNGLKMDQFCKEHGFVGWFETSAKENINIDEASRCLVKHILANECDLLESIEPDIVKPHLTSPKVVSCSGCAKS",
